Test results taken from PubChem BioAssay AID1362 (SRMLSC, 2008).
The list shows a part of the results. Further columns of the screen follow, without active or inactive calls. Most of these compounds were active or inconclusive in the main read-out, so they are no random draw.

Assay: growth inhibition of WT strain, primary screen, mitochondrial fusion inhibitor project, WT and mutant strains, chemical genetic (AID 1362); also: tested in S. cerevisiae
Conditions: mitochondrial fusion phenotypic screen, at 10 µM

SMILES | inhibition [%]
CN1/C(=C\C(=O)COC(=O)c2ccc([N+](=O)[O-])o2)C(C)(C)c2ccccc21 | 91.2
CC(C)(C)C1CCC(=NOC(=O)c2ccc(F)cc2)CC1 (stereo not drawn) | 95.6
CC(/C=N/n1c(-c2ccc(Cl)cc2)n[nH]c1=S)=C\c1ccco1 | 30.6
CCOC(=O)c1cc2c(ccn2C)n1Cc1cc(C)ccc1C | 6.66
CN(C)CCNC=C(C(=O)Nc1ccc(Cl)cc1Cl)C(=O)Nc1ccc(Cl)cc1Cl | 95.8
Cc1c(OCc2ccccc2)cccc1OCc1ccccc1 | 49.9
C/C(=N\Nc1cccc(Cl)c1)c1ccc(-n2ccnc2)cc1 | 38.8
C=CCc1ccc(O)c(-c2cc(CC=C)ccc2O)c1 | 54.4
CCCCCNCC(=O)Nc1cccc(C(=O)Nc2cccc(C(F)(F)F)c2)c1 | 47.4
COc1ccc(O[C@H]2C=C[C@@H](c3ccccc3)O[C@@H]2CO/N=C(\C)CCN2CCCCc3nc(C)c(C)cc32)cc1 | 3.15
Clc1ccc(-c2ccc(/C=N/Nc3cc(N4CCOCC4)nc(N4CCOCC4)n3)o2)cc1 | 21.4
CN1CCN(S(=O)(=O)c2ccc(N3CCN(C(c4ccccc4)c4ccccc4)CC3)nc2)CC1 | 41.1
CC1=NN(c2ccccc2)C(=O)/C1=C/c1cc2cc(C)ccc2nc1N1CCCCC1 | 40.4
Cc1ccc(CSc2nc3c(c(N(C)C)n2)CCCC3)cc1 | 76.6
O=C1Nc2ccc(F)cc2C12Nc1ccccc1-c1nnc(SCc3ccccc3Cl)nc1O2 (stereo not drawn) | 45.2
CN1C(=O)/C(=C/c2cc(N=Nc3ccccc3)ccc2O)SC1=S | 76.4
NS(=O)(=O)c1ccc(N2N=C(c3ccccc3)CC2c2ccc(F)cc2)cc1 (stereo not drawn) | 15.7
O=C(Oc1cccc(C(=S)N2CCCCC2)c1)c1ccccc1 | 24.3
CCc1n[nH]c(=S)n1/N=C/c1ccc(N(C)c2ccccc2)cc1 | 45.1
O=[N+]([O-])c1ccc(NC(=S)NCCc2ccc(F)cc2)cc1 | 79.9
CCn1ccnc1CN(C)Cc1cn(-c2cc(C)ccc2C)nc1-c1ccccc1 | 27.4
O=[N+]([O-])c1cccc(C2NCC(c3ccccc3Cl)c3c2[nH]c2ccccc32)c1 (stereo not drawn) | 35.9
CCCCCCCC[n+]1cccc2c3ccccc3ccc21 | 66.8

SMILES | inhibition [%]
Cc1ccccc1NC1=C(Cl)C(=O)OC1OC(=O)c1ccccc1C (stereo not drawn) | 39.4
Cc1ccccc1NC(=S)NCCSc1ccc(Cl)cc1 | 70.9
CC(C)C1COC(c2cccn2Cc2ccccc2Cl)=N1 (stereo not drawn) | 26.9
O=c1cc(N2CCCCC2)c(-c2ccccc2)nn1Cc1ccc(F)cc1 | 6.49
Cc1cc(C)n(CC(O)Cn2c3ccc(Cl)cc3c3cc(Cl)ccc32)c(=O)n1 (stereo not drawn) | 20.9
CCN(CC)c1ccc(C(=S)NCc2ccccc2)cc1 | 42.7
Cc1ccc2c(c1)c1c(n2CC(O)Cn2nc(C)c(Br)c2C)CCCC1 (stereo not drawn) | 21.7
Cc1ccccc1C(=O)c1cccn1CC(=O)NCCN1CCN(c2cccc(C)c2C)CC1 | 49.2
COc1ccccc1C(=O)n1nc(-c2ccccc2)nc1NCc1ccco1 | 76.3
c1ccc(-c2nc(NCc3cccnc3)c3oc4ccccc4c3n2)cc1 | 67.4
C=CC[n+]1c(-c2ccc(Cl)cc2Cl)csc1Nc1ccc(NC(C)=O)cc1 | 83.3
Cc1ccc(C(c2nnnn2CC2CCCO2)N2CCN(c3cccc(C)c3C)CC2)cc1 (stereo not drawn) | 26.3
COc1cccc(C(=O)O/N=C(\N)Cc2ccc(Cl)cc2)c1 | 50
Cc1ccc(S(=O)(=O)N2CCN(c3ccnc4cc(Cl)ccc34)CC2)cc1 | 29.4
O=C1CSC(c2ccc(F)cc2)N1c1nc2ccccc2s1 (stereo not drawn) | 31.1
CO/N=C(\c1nonc1N)N1CCN(c2ccc(Cl)cc2[N+](=O)[O-])CC1 | 34.6
CC(C)(C)c1ccc(-c2n[nH]c(=S)n2C2CCCC2)cc1 | 50.4
C/C(=N\NC(=S)NCc1ccccc1)c1cccc(Br)c1 | 66
c1ccc(-c2noc(-c3ccccc3-c3ccccc3)n2)cc1 | 53.4
CCOC(=O)c1ccc(NC(=S)NCCc2ccccc2F)cc1 | 37.6
O=C(NCc1ccco1)c1cc2sccc2n1Cc1ccccc1 | 39.1
Cc1cc(NC(=S)N(Cc2cccc(Br)c2)CC2CCC(C(=O)O)CC2)ccc1Cl (stereo not drawn) | -0.1
CCOC(=O)c1c(C)[nH]c(C2=NNC(=Nc3ccccc3)SC2)c1C | 17.1

SMILES | inhibition [%]
Cc1ccc(NC(=O)CCC(=O)OCC(=O)c2ccc(Oc3ccc([N+](=O)[O-])cc3)cc2)cc1C | 8.88
COc1ccc(C(CCNCc2ccccc2)c2ccc(F)cc2)cc1 (stereo not drawn) | 32.1
CSc1nc(N2CCN(CCO)CC2)c2sc3nc(-c4ccco4)c4c(c3c2n1)CCC4 | 83.6
O=C1CC(N(CCc2ccccc2)C(=S)Nc2ccccc2)C(=O)N1c1ccccc1 (stereo not drawn) | 38.4
CCOc1ccc(-c2ccc(SC)nn2)cc1 | 65.5
O=C(Nc1ccc(Cl)cc1)NC1CCCCC1Cc1ccco1 (stereo not drawn) | 74.1
CCn1c(CSc2nc3ccccc3s2)nc2ccccc21 | 51.1
Cc1cccc(-c2n[nH]c(=S)n2Cc2ccccc2)c1 | 32.4
CC(C)C(NC(=O)c1ccc(C(C)(C)C)cc1)C(=O)NC1=NCCS1 (stereo not drawn) | 20.8
COC(=O)Cc1ccc(N(Cc2ccccc2F)S(=O)(=O)c2ccc(Cl)cc2)cc1 | 31.2
C=C(C)C1Cc2c(C)nn(-c3ccccn3)c2C1 (stereo not drawn) | 64.2
Cc1ccc(C(=O)C(c2ccccc2)N2Cc3ccccc3C2=N)cc1 (stereo not drawn) | 59.2
O=C(Oc1cccc(Nc2ncnc3ccccc23)c1)c1ccccc1Cl | 41.8
COc1ccc(C(=O)C(CN2CCOCC2)c2ccccc2)cc1F (stereo not drawn) | 60.3
O=C(Cn1nc(-c2ccccc2Cl)ccc1=O)Nc1ccccc1-c1ccccc1 | 18.3
Cc1[nH]n(C(C)(C)C)c(=O)c1Sc1ccc(Cl)cc1 | 52.6
O=c1oc(Nc2cccc(F)c2)nc2ccccc12 | 0.46
CC(=O)Nc1cccc(Oc2ncnc3scc(-c4ccc(C(C)C)cc4)c23)c1 | -10.2
CCOc1ccc2c(c1)C(C)=CC(C)(C)N2S(=O)(=O)c1ccc(C)cc1 | 20.2
CCn1cc(C(=O)NCCc2ccccc2)c(=O)c2cc(F)c(N3CCN(C)CC3)cc21 | -3.19
CN(c1ccccc1)C1CCCCC1NS(=O)(=O)c1ccc(Cl)cc1 (stereo not drawn) | 35.2
O=C(Nc1ccc(N2CCCCC2)c(Cl)c1)c1ccc2c(c1)OCCO2 | 36.6
